In article PMC6451091:
The list shows a part of the results. For part of these data: At the low end of the ranking the order means little. For part of these data: Measured with an extract: partners may take part in the binding.

Biological target: PU.1 (IVT) (UniProt P17947)
Experiment: protein-binding microarray (PBM)
Conditions: 20 mM HEPES pH 7.9, 100 mM NaCl, 1 mM DTT, 0.2 mg/mL BSA, 0.02% Triton X-100, 2% milk, 0.4 mg/mL salmon testes DNA; 1 h; temperature not stated; high values mean tight binding; double strand, one strand shown; sequences stand for … in GCCTAGCAC…GTGCTAGGTCTTGATTCGCTTGACGCTGCTG

Sequence | binding signal [z-score]
GGAATTAGGAAGTGGTTCTT | 4.29
AGAAAGAGGAAGGGTTTGAA | 3.82
AATAAGAGGAAGTAACGTGC | 7.68
TTAGAGGGGAACTGCAAGGC | 1.64
CTAGGAAGGAAGTGGTTAAG | 2.14
ACAAAGAGGAACTAGGGGAG | 4.96
CAAAAAGGGACGTGGATGCT | 0.256
AAAAAAAGGAAGTGGTAAAC | 6.51
TTTTTGAGGAACTGCCAGAC | 3.81
GGAAAGAGGAAGAGAGAGTG | 4.35
TGAATGAGGAACTGCGTTTC | 4.84
AAAAAAGAGAAGTGGGGGAA | 5.77
AGGAAAAGGAAGTGGCTTTG | 3.82
GAAAAGGAGAACTGCATCTT | 3.49
CCAGAGAGGAAGTGTTTGAT | 4.5
GCAAAGAGGAAGTGACTCAA | 6.81
GAAGGGAGGAAGTGCGTGCT | 4.01
TGTTTGAGGAAGTGGTGTGG | 5.87
TGAAAGAGGCAGTGCAACCA | -0.242
GAAAAGAGGAAGTCAAACTA | 8.35

Sequence | binding signal [z-score]
AAAAAAAGGAACTGGCTGGA | 4.08
CCAAAGAGGAAGTGTGGGCA | 5.78
CAAATGAGGAAATGTGGCTT | 3.55
TGGAAGAGGAAGTGGTGGCC | 5.89
ACAAAAAGGAACTGGGCCCC | 1.42
TAGGAGAGGAACTGGAGTGA | 2.05
TTTTTGAGGAACTGTGGGTG | 4.02
GGATAGAGGAAGTCCCCTGT | 5.67
AGAAAGAGGAACTCTGTCTC | 6.01
AAAAGGAGGAAGTGGGGGGA | 6.01
AAAAAGAGGAAGTCAAATAA | 8.51
GAAAACAGGAAGTCCCATAA | 7.36
GGGGAAGGGAAGTGGACAGT | 2.63
CGAAAGGGGAGGTGCTAAAC | -0.362
AAAAAGAGGAACTCCCAGGA | 6.86
CAAAAGAGGAAGTGGTGAAA | 8.4
TCTTTGAGGAAGTGCTGCAG | 5.19
AAAAAGGGGAAGAGCATTGC | 5.21
AAAAGAAGGAAGTGGGGGTA | 5.06
GAAAAAGGGAAGTGCAGTCA | 6.71

Biological target: PU.1 (endogenous, THP-1 nuclear extract) (UniProt P17947)
Experiment: nuclear extract protein-binding microarray (nextPBM)
Conditions: 20 mM HEPES pH 7.9, 100 mM NaCl, 1 mM DTT, 0.2 mg/mL BSA, 0.02% Triton X-100, 2% milk, 0.4 mg/mL salmon testes DNA; 1 h; temperature not stated; high values mean tight binding; double strand, one strand shown; sequences stand for … in GCCTAGCAC…GTGCTAGGTCTTGATTCGCTTGACGCTGCTG

Sequence | binding signal [z-score]
GGAATTAGGAAGTGGTTCTT | 4.4
AGAAAGAGGAAGGGTTTGAA | 4.23
AATAAGAGGAAGTAACGTGC | 7.23
TTAGAGGGGAACTGCAAGGC | 1.8
CTAGGAAGGAAGTGGTTAAG | 2.26
ACAAAGAGGAACTAGGGGAG | 6.11
CAAAAAGGGACGTGGATGCT | 0.379
AAAAAAAGGAAGTGGTAAAC | 6.53
TTTTTGAGGAACTGCCAGAC | 4.2
GGAAAGAGGAAGAGAGAGTG | 5.05
TGAATGAGGAACTGCGTTTC | 5.28
AAAAAAGAGAAGTGGGGGAA | 6.11
AGGAAAAGGAAGTGGCTTTG | 3.97
GAAAAGGAGAACTGCATCTT | 3.44
CCAGAGAGGAAGTGTTTGAT | 4.3
GCAAAGAGGAAGTGACTCAA | 6.96
GAAGGGAGGAAGTGCGTGCT | 3.54
TGTTTGAGGAAGTGGTGTGG | 6.27
TGAAAGAGGCAGTGCAACCA | -0.235
GAAAAGAGGAAGTCAAACTA | 7.32

Sequence | binding signal [z-score]
AAAAAAAGGAACTGGCTGGA | 4.19
CCAAAGAGGAAGTGTGGGCA | 6.28
CAAATGAGGAAATGTGGCTT | 3.88
TGGAAGAGGAAGTGGTGGCC | 6.37
ACAAAAAGGAACTGGGCCCC | 1.96
TAGGAGAGGAACTGGAGTGA | 2.08
TTTTTGAGGAACTGTGGGTG | 4.12
GGATAGAGGAAGTCCCCTGT | 6.16
AGAAAGAGGAACTCTGTCTC | 6.68
AAAAGGAGGAAGTGGGGGGA | 6.4
AAAAAGAGGAAGTCAAATAA | 7.58
GAAAACAGGAAGTCCCATAA | 7.26
GGGGAAGGGAAGTGGACAGT | 2.81
CGAAAGGGGAGGTGCTAAAC | -0.48
AAAAAGAGGAACTCCCAGGA | 6.81
CAAAAGAGGAAGTGGTGAAA | 7.23
TCTTTGAGGAAGTGCTGCAG | 5.58
AAAAAGGGGAAGAGCATTGC | 5.99
AAAAGAAGGAAGTGGGGGTA | 5.71
GAAAAAGGGAAGTGCAGTCA | 6.96

Biological target: T1, FLI1 (endogenous, THP-1 nuclear extract) (UniProt Q01543)
T1 sequence: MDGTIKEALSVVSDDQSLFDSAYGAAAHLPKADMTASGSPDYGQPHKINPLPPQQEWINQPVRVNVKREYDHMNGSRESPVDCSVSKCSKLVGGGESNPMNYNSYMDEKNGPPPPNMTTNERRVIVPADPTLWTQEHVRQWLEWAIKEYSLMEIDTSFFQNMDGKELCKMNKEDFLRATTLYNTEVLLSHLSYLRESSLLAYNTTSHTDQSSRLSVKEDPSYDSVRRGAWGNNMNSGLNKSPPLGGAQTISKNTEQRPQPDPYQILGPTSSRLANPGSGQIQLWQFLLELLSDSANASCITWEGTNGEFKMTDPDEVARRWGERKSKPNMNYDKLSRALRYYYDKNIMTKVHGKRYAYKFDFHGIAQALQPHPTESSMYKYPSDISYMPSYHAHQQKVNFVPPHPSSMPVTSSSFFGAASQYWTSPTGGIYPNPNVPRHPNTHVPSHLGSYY
Experiment: as above
Conditions: 20 mM HEPES pH 7.9, 100 mM NaCl, 1 mM DTT, 0.2 mg/mL BSA, 0.02% Triton X-100, 2% milk, 0.4 mg/mL salmon testes DNA; 1 h; temperature not stated; high values mean tight binding; double strand, one strand shown; sequences stand for … in GCCTAGCAC…GTGCTAGGTCTTGATTCGCTTGACGCTGCTG

Sequence | binding signal [z-score]
GGAATTAGGAAGTGGTTCTT | 2.1
AGAAAGAGGAAGGGTTTGAA | 1.61
AATAAGAGGAAGTAACGTGC | 3.61
TTAGAGGGGAACTGCAAGGC | 0.0869
CTAGGAAGGAAGTGGTTAAG | 2.32
ACAAAGAGGAACTAGGGGAG | 1.49
CAAAAAGGGACGTGGATGCT | 0.474
AAAAAAAGGAAGTGGTAAAC | 2.86
TTTTTGAGGAACTGCCAGAC | 1.13
GGAAAGAGGAAGAGAGAGTG | 1.82
TGAATGAGGAACTGCGTTTC | 1.27
AAAAAAGAGAAGTGGGGGAA | 2.64
AGGAAAAGGAAGTGGCTTTG | 2.94
GAAAAGGAGAACTGCATCTT | 0.625
CCAGAGAGGAAGTGTTTGAT | 3.09
GCAAAGAGGAAGTGACTCAA | 3.68
GAAGGGAGGAAGTGCGTGCT | 2.75
TGTTTGAGGAAGTGGTGTGG | 2.7
TGAAAGAGGCAGTGCAACCA | -0.55
GAAAAGAGGAAGTCAAACTA | 4.06

Sequence | binding signal [z-score]
AAAAAAAGGAACTGGCTGGA | 1.5
CCAAAGAGGAAGTGTGGGCA | 3
CAAATGAGGAAATGTGGCTT | 1.77
TGGAAGAGGAAGTGGTGGCC | 3.09
ACAAAAAGGAACTGGGCCCC | 0.58
TAGGAGAGGAACTGGAGTGA | 0.803
TTTTTGAGGAACTGTGGGTG | 0.816
GGATAGAGGAAGTCCCCTGT | 2.97
AGAAAGAGGAACTCTGTCTC | 2.29
AAAAGGAGGAAGTGGGGGGA | 2.96
AAAAAGAGGAAGTCAAATAA | 3.99
GAAAACAGGAAGTCCCATAA | 4.7
GGGGAAGGGAAGTGGACAGT | 1.85
CGAAAGGGGAGGTGCTAAAC | -0.322
AAAAAGAGGAACTCCCAGGA | 3.21
CAAAAGAGGAAGTGGTGAAA | 4.12
TCTTTGAGGAAGTGCTGCAG | 2.36
AAAAAGGGGAAGAGCATTGC | 1.51
AAAAGAAGGAAGTGGGGGTA | 2.42
GAAAAAGGGAAGTGCAGTCA | 2.54
